Data taken from publication PMC4336329 (PLoS ONE, 2015).
Screen size: about 310,000 compounds; about 2,200 (0.71%) showed an effect of 50% or more. Effects have a minus sign here. This is one part of the list.

Target: human ether-à-go-go-related gene (hERG) potassium channel (human, UniProt Q12809)
Test: primary screen, population patch clamp on CHO cells stably expressing hERG

Sequence of human ether-à-go-go-related gene (hERG) potassium channel (Q12809 whole entry, looked up): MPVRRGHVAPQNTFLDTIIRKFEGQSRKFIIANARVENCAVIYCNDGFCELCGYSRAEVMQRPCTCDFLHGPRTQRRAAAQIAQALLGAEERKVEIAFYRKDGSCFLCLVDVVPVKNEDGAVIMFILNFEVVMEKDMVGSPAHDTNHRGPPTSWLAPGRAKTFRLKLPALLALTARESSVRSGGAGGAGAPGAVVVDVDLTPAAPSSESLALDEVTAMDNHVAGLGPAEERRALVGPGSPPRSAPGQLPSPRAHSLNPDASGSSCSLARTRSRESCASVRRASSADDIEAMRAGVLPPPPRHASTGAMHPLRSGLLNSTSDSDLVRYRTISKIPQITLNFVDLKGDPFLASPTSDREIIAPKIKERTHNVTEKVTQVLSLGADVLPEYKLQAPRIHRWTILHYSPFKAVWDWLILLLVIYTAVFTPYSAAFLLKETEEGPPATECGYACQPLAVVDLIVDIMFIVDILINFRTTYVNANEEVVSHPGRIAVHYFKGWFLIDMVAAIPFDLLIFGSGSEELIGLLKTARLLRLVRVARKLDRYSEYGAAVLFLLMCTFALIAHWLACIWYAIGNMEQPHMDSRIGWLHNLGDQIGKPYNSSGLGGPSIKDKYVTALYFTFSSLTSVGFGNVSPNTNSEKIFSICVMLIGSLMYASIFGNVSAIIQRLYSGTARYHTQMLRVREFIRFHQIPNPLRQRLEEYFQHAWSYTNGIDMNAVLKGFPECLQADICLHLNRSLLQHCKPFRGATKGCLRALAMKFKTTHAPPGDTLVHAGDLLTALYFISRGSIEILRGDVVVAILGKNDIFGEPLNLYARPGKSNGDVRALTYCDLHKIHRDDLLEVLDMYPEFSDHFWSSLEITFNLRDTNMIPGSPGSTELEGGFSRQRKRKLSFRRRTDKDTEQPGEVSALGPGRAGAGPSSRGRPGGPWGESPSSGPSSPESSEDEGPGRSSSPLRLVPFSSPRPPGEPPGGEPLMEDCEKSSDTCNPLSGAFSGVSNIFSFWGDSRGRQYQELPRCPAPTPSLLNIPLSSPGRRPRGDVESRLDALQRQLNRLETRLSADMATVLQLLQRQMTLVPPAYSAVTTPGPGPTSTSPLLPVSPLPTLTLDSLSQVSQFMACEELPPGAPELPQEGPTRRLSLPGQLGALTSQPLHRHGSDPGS

SMILES	hERG current change (%, negative = inhibition) at 1uM [%]
Cc1ccccc1CN(C)Cc1cc(=O)oc2c(C)c(C)ccc12	16.5
Cc1nnc(C)n1/N=C/c1cc(Br)cc(Br)c1O	15.5
Cl.N#C/C=C/N1CCN(Cc2ccc3c(c2)OCO3)CC1	12.7
Cn1c(=O)c2c(nc3n2CC(COc2ccccc2)O3)n(C)c1=O (stereo not shown)	13.8
Cc1ccc(N2CC(C(=O)OCC(=O)Nc3ccc(F)cc3F)CC2=O)cc1 (stereo not shown)	4.81
Cc1oc(-c2ccccc2F)nc1CN1CCC(C(=O)NCc2cccnc2)CC1	-1.6
COc1cc(-c2nc3ccccc3s2)ccc1O	-3.85
CCOc1ccc(OCC)c2sc(C)nc12	9.93
CCN1CCN(CC(O)COc2ccc(Cl)cc2)CC1.Cl (stereo not shown)	-0.541
COC(=O)c1cn(NC(=O)c2ccc([N+](=O)[O-])cc2Cl)c(=O)c2ccccc12	0.834
N#CCCNc1c(Cl)cc(Cl)cc1C(=O)O	5.45
Cc1nn(-c2ccccc2Cl)c(Cl)c1/C=N/Nc1cccc(C(=O)O)c1	6.86
CC1(C)Cc2c(sc(/N=C/N3CCCCC3)c2C#N)C(C)(C)N1	-1.78
COc1ccc(CCNC2CCc3ccccc3C2)cc1 (stereo not shown)	-12.4
COc1cccc(/C=C2\C=C(c3ccc(C)cc3)OC2=O)c1OC(C)=O	11.5
C=CCn1c(C)cc(-c2csc(NC(=O)CCc3nc4ccccc4c(=O)[nH]3)n2)c1C	10.7
O=C(NCC1CCCO1)C1CCC(=O)N1CCc1ccccc1 (stereo not shown)	7.54
Cc1c(Oc2cc(NN3CCCCC3)c([N+](=O)[O-])cc2[N+](=O)[O-])cccc1[N+](=O)[O-]	10.3
O=C(NC1=C(NC2CCS(=O)(=O)C2)C(=O)c2ccccc2C1=O)c1ccccc1 (stereo not shown)	9.44
Cc1ccc(-n2nc3c(=S)[nH]nc(C)c3c2C)cc1	15.1
O=C(COC(=O)c1ccc(Cl)nc1)Nc1ccccc1OC(F)F	1.86
O=C(Cn1cc(/C=N/NC(=O)c2cccc3ccccc23)c2ccccc21)Nc1ccc(F)cc1	1.77
COC(=O)Cn1cnc2c(cnn2-c2ccc(OC)cc2)c1=O	15.6
O=[N+]([O-])c1ccc(Oc2cnc3ccccc3n2)cc1	9.34
Cc1ccc(C(=O)NCC(=O)N2CCCCCCC2)cc1	20.7
Cn1c(NCc2ccccc2)cc(=O)n(C)c1=O	9.78
O=C(Nc1ccc2c(c1)OCO2)C1CC(=O)N(c2ccccc2)C1 (stereo not shown)	18.4
O=C(Nc1ccn(Cc2ccc(Cl)cc2)n1)c1ccc2c(c1)OCO2	18.8

SMILES	hERG current change (%, negative = inhibition) at 1uM [%]
O=C(CCC(=O)NC1CCCCCCC1)Nc1nnc(C(F)(F)F)s1	-6.93
O=C(OCc1nnc(-c2ccc(Br)cc2)o1)c1ccco1	-3.17
CC(=O)N1c2ccc(S(=O)(=O)N3CCC(C(=O)Nc4ccc(F)cc4)CC3)cc2CC1C (stereo not shown)	24.3
Cc1cccc(NC(=O)C(Cc2ccccc2)c2nn[nH]n2)c1C (stereo not shown)	8.45
CCOc1ccc(CCN2C(=O)C3C4CCC(O4)C3C2=O)cc1OCC (stereo not shown)	8.44
CC(C)[C@H](NC(=O)C1(c2ccccc2)CCN(C(=O)OC(C)(C)C)CC1)C(=O)O	2.17
COc1cccc(OC)c1C(=O)N1CCOCC1	-13.7
Cc1cc(C)nc(NS(=O)(=O)c2ccc(NC(=O)c3ccc4c(c3)OCO4)cc2)n1	2.11
O=C1c2ccccc2C(=O)N1CCCc1nc2ccccc2c(=O)n1CCCn1ccnc1	-15.7
COc1ccc(S(=O)(=O)N2CCCCCC2)cc1N(C)S(=O)(=O)c1ccc(Cl)cc1	6.64
N#CC1=C(N)OC2=C(C(=O)CCC2)C1c1ccsc1 (stereo not shown)	9.36
Cc1c(C)n(CC(O)CNc2ccccc2)c2ccccc12.O=C(O)C(=O)O (stereo not shown)	10
Cc1cc(=O)oc2c(C)c(OCC(=O)N3CCN(c4cccc(Cl)c4)CC3)ccc12	8.32
N#CC1=C(S)N(c2ccccc2)C(c2ccc(-c3cccc(Cl)c3)o2)NC1=O (stereo not shown)	2.87
COc1ccc(NC(=O)CCCCCN2C(=O)c3cccc([N+](=O)[O-])c3C2=O)c(OC)c1	14.2
CC(=O)Nc1sc2c(c1C(c1ccc(F)cc1)N1CCOCC1)CCCC2 (stereo not shown)	4.96
COc1ccc(C2=C(C=Nc3c(C)n(C)n(-c4ccccc4)c3=O)C(c3ccccc3C)c3ccccc3O2)cc1OC (stereo not shown)	12
CC(C)NC(=O)COc1nncc2ccccc12	17.6
COc1ccccc1C(=O)NCCC(=O)N(C)CC(=O)Nc1c(Cl)cccc1Cl	7.18
O=C(CCN1C(=O)CSc2ccccc21)Nc1cccc(C(F)(F)F)c1	-0.696
COC(=O)CNC(=O)COC(=O)c1ccc(Cl)nc1	6.99
CC(/C=N/n1c(-c2ccco2)n[nH]c1=S)=C\c1ccccc1	10.3
COc1ccc(C2=NOC(C(=O)N3CCOCC3)C2)cc1OC (stereo not shown)	15.2
COc1ccc(C(=O)Nc2c(O)ccc3ccccc23)cc1OC	12.3
OCC1(CCc2ccccc2)CCN(Cc2cccn2-c2cccnc2)CC1	-23.3
N#Cc1c(C(F)(F)F)cc(-c2ccccc2)nc1SCC(=O)Nc1sc2c(c1C#N)CCC2	11.2
COCCCN1C(=O)C(=O)/C(=C(/O)c2ccc3c(c2)CC(C)O3)C1c1cccnc1 (stereo not shown)	6.13
